According to the supplement of paper PMC11417369:
This is one part of the list.

tested on: PF3D7_0420300 AP2 domain 1 (GST-tagged); test: gcPBM binding intensity (ln(normalized median fluorescence intensity)); higher = stronger DNA binding
In short: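 The binding buffer was 1× PBS containing 1% milk, 0.2 mg/ml BSA, 0.5% salmon testes DNA and 0.03% Triton X-100. In it, GST-tagged P. falciparum DNA-binding domains expressed in E. coli were applied for 1 h to an Agilent 4 × 180k array of primer-extended double-stranded 36-bp intergenic genomic probes plus negative controls. Binding intensity, read with Alexa488 anti-GST antibody and a 488 nm scan, is the highest Masliner-normalised natural-log median intensity across replicate spots of either probe orientation.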

Row | Sequence | gcPBM binding intensity (ln)
1 | AAAATACATATATATATATATAATATTGTTGTTAAA [GTGCAC_negctrl_site519] | 9.13
2 | CATATTTACATTAAGTGTACTTATGAATATATATAC [XGTACX_site7962] | 9.17
3 | ATAATATTTTATAATTGTACTTTTTATAAATATAAA [XGTACX_site1940] | 9
4 | ATATTTTTTTTCATTTGTACACATAAAATTATATAG [XGTACX_site8260] | 9.37
5 | TTTTTATTTTTAGTAGTGCATTAATCATATGGTCAT [GTGCAC_site9879] | 9.04
6 | TAAATAAATCCACATACACACACGACGCTAGTATAT [CACACA_site1060] | 9.77
7 | AATATTTTATTTTTTCTCATTAAAAATTTTTTTTTT [CACACA_negctrl_site364] | 9.01
8 | GATAGATAATATTTTAGTACATAAACAATTAAATAT [XGTACX_site4125] | 9.3
9 | AATATATAAACCGAACGTACATATTTTTTATACACC [XGTACX_site2121] | 9.53
10 | TGTTATATGTTCAAATGTACAAATCATATACATGTT [XGTACX_site3192] | 9.2
11 | GTGTACAGACACAAAATATATACATATATATATATA [CACACA_negctrl_site1796] | 9.15
12 | TATTTTCATAATAAAAAAAAATAATTTAAAAAATAT [CACACA_negctrl_site748] | 8.66
13 | ATTATTTTCTCATAGAGTACAAATGTTGTTGTTGTC [XGTACX_site1062] | 9.15
14 | TGTGCACATAATTAGTGTACATTTTTTATTTAGACA [XGTACX_site317] | 8.98
15 | AATGGCAAAATAGGCACACACACATATACATATATA [CACACA_site1058] | 10.1
16 | AATTATATTTGAAATACACACATAAAAATCATATAG [CACACA_site3468] | 9.64
17 | AGATTTAAATATCATACACACTTTATATATAATACA [CACACA_site4688] | 9.35
18 | ATTAGAGAATCGTAACCCAAATGAACATACTTAAAT [GTGCAC_negctrl_site363] | 9.43
19 | AAAAAAAAAAAAAATACACACATATAAATATAAATA [CACACA_site6189] | 9.73
20 | CTTATTGATTTAAAAAGTACATATATGTATATACAC [XGTACX_site4072] | 9.15
21 | GAGCGTAATCTATTTGCACACTTATTTGTTCTTAAA [CACACA_site673] | 9.48
22 | GTGTATAATATAGGATGTACAATAAAACACCGATTG [XGTACX_site7429] | 9.43

Row | Sequence | gcPBM binding intensity (ln)
23 | TTGTTTATCAACAGCACACACAACAACAACAACAAC [CACACA_site458] | 9.49
24 | ATAAAAACATAAACAAATCAAAAAAAAAAAAAAAAA [CACACA_negctrl_site13] | 8.86
25 | AAATAATGAAACAAAGTGCATAAAAATATACATATA [GTGCAC_site9467] | 9.47
26 | ATGGATTATACGTGCACACATATATACCAATAAATA [CACACA_site4524] | 9.43
27 | CATTAAAATATGAGATGTACACAATATCTATTATAT [XGTACX_site4979] | 9.3
28 | ATTTAAATATCTTCTTTTTTTTTTTTTTTTGAAATT [CACACA_negctrl_site1074] | 8.94
29 | TTTCACCATATAAACGTGCACACTACAAAAATATAT [CACACA_site2547] | 9.36
30 | AAATAATAAATTATAACACACATATATATATATATA [CACACA_site4045] | 9.2
31 | ATAATACAATTTATAACACACACACTATAATACATA [CACACA_site8338] | 9.97
32 | TTCATGCTTATATGTGCACACACAAAAGAAAAGAAA [CACACA_site1656] | 9.6
33 | GGAAAGACAGTTCACAGTACCCAGTAACTCTACGGA [XGTACX_site2009] | 9.2
34 | TTATATAGGTCATTCATAAATACAGTTTTTAAAAAA [CACACA_negctrl_site1340] | 8.84
35 | AATTCATTATATATACGTACATATTTCTGTATAAAA [XGTACX_site6371] | 9.24
36 | ATTTATTTCACAAAAACATGCAGTTTGAAATTGCCA [TGCATGCA_site910] | 8.96
37 | GCATAAATTATCATAACATAAATATAAAAATATAAT [GTGCAC_negctrl_site55] | 9.18
38 | GATTATTTTATAAGTACACACATTTATATATAATAA [CACACA_site2573] | 9.44
39 | ATATATATATATATATGTACATATATATTGTTGATC [XGTACX_site8893] | 9.21
40 | ACATATTATTCAAGTGCACACTTTATATTTATGATT [CACACA_site3295] | 9.52
41 | ATTTAATTCGTACATACACACGCACATATATATATA [CACACA_site8415] | 9.72
42 | TACAATAATGATTGTTGTACATTATTGATATTTAAA [XGTACX_site2940] | 9.06
43 | TTTAATTTTTAATCAGTGCAATATTATATAATATAT | 9.08
44 | AAAAAAAAACAGAAAACACACAAATTATCTTAGAAT [CACACA_site309] | 9.61

Row | Sequence | gcPBM binding intensity (ln)
45 | ATTAATTCGTTTTGTACACACATAATGAATAATTTA [CACACA_site2235] | 9.31
46 | TCATTTTAATTAAAAGTGCAAAAAATAATATAACTA [GTGCAC_site9968] | 9.1
47 | AATAATTCATCATATGCACACACAATACCAAAATGT [CACACA_site7945] | 9.83
48 | TATATGAAATATTATGCACACAATATATAATATGAT [CACACA_site936] | 9.51
49 | CAAAAATAATAGAATACATGCAAAAATAAATGTATA [TGCATGCA_site196] | 9.48
50 | ATAATATATTTAATCATACACACATTTATGTACCTA [CACACA_site1719] | 9.58
51 | AAAAATAAAGGGTGTGCACACAAAAATATATATATA [CACACA_site1727] | 9.94
52 | TTTTTTTTTAAAACATAATAAAAAATAAAACAACCT [GTGCAC_negctrl_site92] | 9.31
53 | ATATATGCATATATATGTACATATATATATATATAT [XGTACX_site7403] | 9.22
54 | AATAAATAAAAAATTACACACATATATATAAATATA [CACACA_site3434] | 9.57
55 | ATATTTTTAGATTCAGAAAAAAGATTCAACTTACTC [CACACA_negctrl_site1357] | 8.99
56 | TAAATTATAAATTGCACACATATTTTTATATTTATA [CACACA_site2976] | 9.25
57 | TATTTCATATGAAGAAGTACTATTAATAATTTCCTT [XGTACX_site6587] | 8.96
58 | TTAATACATACATTCACACACACTAATTGTATATTT [CACACA_site9362] | 9.86
59 | ATATATATATATAATACACACTTATGAAATGTCTAA [CACACA_site5077] | 9.36
60 | TTCTTTTTTCGACACACACACACAAGAAGATATATA [CACACA_site7456] | 10.1
61 | TGTACAAATATGTTGAAAATAAAATTTCAATATATT [XGTACX_negctrl_site13] | 9.02
62 | ATACGAATAAATTTCGCATGCAGCATATATATCAAT [TGCATGCA_site612] | 9.17
63 | AACGAAAATAAGAAAAGTACAAAAAATACCAAATAA [XGTACX_site6171] | 9.69
64 | TGCCCTAACCATACTACACACACTGCTCAAAATAGT [CACACA_site2219] | 9.81
65 | TATATATATTTATAATGTACACATATATGTAAATAT [XGTACX_site3695] | 9.23
66 | TACAATATAAAATACACACACACAAACATATATTTA [CACACA_site5941] | 10.2

Row | Sequence | gcPBM binding intensity (ln)
67 | AAGAACCATATTTAAACACACATACCTATATAAATA [CACACA_site7553] | 9.49
68 | ATAATTATATACCATGCACACAAATATTCATACAGG [CACACA_site9343] | 9.66
69 | TATATACACATTTTTATACACACTTGTTTTATAAAA [CACACA_site8139] | 9.39
70 | TTATGCATATATTATGCATGTAGTTTTAAATCACAT [TGCATGCA_site104] | 8.89
71 | AAAAAATACATACATACACACATATTTATTTATATA [CACACA_site6554] | 9.63
72 | GCACAAATATATATATATATATATATATATATATAT [GTGCAC_negctrl_site661] | 9.06
73 | AATAAATAAATAAATAAATAAATATATATATATATA [GTGCAC_negctrl_site330] | 9.13
74 | TAATGACAATAAAAATAAATAAATAAAAAAAAAAAA [TGCATGCA_negctrl_site321] | 9.18
75 | ATATATTATCTGTACACACACATATAAGGGATTATA [CACACA_site4180] | 9.69
76 | AAGGCATATATAATTTGTACATATTAAGAATTAGAT [XGTACX_site8660] | 9.24
77 | TTTTTTGAAAATAAATGTACGAATTTTATATTTAAA [XGTACX_site2768] | 8.68
78 | TGAAATAAAATTATTTGTACATATCGGAAAAAAAAA [XGTACX_site7131] | 9.16
79 | AAGAAAATAAAAAGGTAAATATGTATAAATAAATAA [TGCATGCA_negctrl_site88] | 9.33
80 | GATACAGATGGACACACACACATACATAAATACATA [CACACA_site5833] | 10
81 | AAATTACCCATCCATACACACATATTTTTTTTAATT [CACACA_site2189] | 9.68
82 | AAAATATATTATTATTGTACATATATTTTCATTTAC [XGTACX_site4593] | 9.37
83 | AATTTTTATACGGATACACACAAAAAAAAATAAAAA [CACACA_site897] | 9.53
84 | TAAATATATTTATAAGCACACACTAATAAACCCACA [CACACA_site390] | 9.83
85 | TTTATTTTGTTTATGGTGCATTTTATGTAAATATAT | 9.4
86 | AGTAGCGGCGGTATCATGCACACGTATAGATTGTAA [CACACA_site1587] | 9.32
87 | TTGTTTATATATATATGTACATATTTTAAGGCATCC [XGTACX_site6976] | 9.1
88 | CCACGTATACGATGCACACGTATGCTTTATATATAG [CACACA_site4108] | 9.36
